Test results taken from PubChem BioAssay AID485294 (National Center for Advancing Translational Sciences (NCATS), 2010).
In all, about 370,000 compounds went through this assay and about 150 (0.041%) were called active. Inconclusive results, whose numbers are uncertain, are shown with a selection of clear calls. Calls follow the shape of the dose curve; as a rule, active = well fitted inhibition curve with a large enough effect; inconclusive = small, poorly fitted or top-dose-only effect; inactive = flat fitted curve, though single readings scatter. Potencies of inconclusive entries are left out as doubtful fits.

Target: Beta-lactamase (Escherichia coli (strain K12)) (UniProt P00811)
Experiment: qHTS Inhibitors of AmpC Beta-Lactamase (assay with detergent); also: nearly all actives have a fitted effect of over 25% in size;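 as to activity change, negative = inhibition: 0% = no-compound wells and -100% = no-enzyme wells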
Conditions: AmpC hydrolysis of nitrocefin, absorbance 480 nm, 0.01% Triton; activity change, negative = inhibition: at 114 µM (top of the series)
Procedure, shortened: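 AmpC (5.3 nM in the dispensed reagent) in 20 mM phosphate pH 7.0 with 0.01% (detergent screen) or 0.0001% Triton X-100 was preincubated with compounds for 15 min at room temperature. Nitrocefin was then added from an 800 uM solution, and hydrolysis was followed at 480 nm.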
Potency is read from the fitted curve at half-maximal effect; tags tell the direction and shape of the fitted curve.

Chain of UniProt P00811 (P00811 whole entry, looked up): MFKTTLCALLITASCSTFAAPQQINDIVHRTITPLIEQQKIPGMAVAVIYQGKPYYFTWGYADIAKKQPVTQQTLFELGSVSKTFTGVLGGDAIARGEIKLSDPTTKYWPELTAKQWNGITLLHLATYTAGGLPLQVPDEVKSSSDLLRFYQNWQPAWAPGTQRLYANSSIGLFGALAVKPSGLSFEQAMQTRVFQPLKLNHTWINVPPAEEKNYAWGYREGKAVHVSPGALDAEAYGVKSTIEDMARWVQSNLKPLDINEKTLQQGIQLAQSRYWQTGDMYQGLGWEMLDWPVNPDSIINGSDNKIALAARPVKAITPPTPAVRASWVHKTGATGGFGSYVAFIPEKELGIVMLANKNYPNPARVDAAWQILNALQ

Row | Structure (SMILES) | Potency | activity change, negative = inhibition
1 | COc1cc(SC)ccc1C(=O)NCc1ccccc1 | inconclusive [inhibitor, single point] | 
2 | N#CC1=C(N)NC(SCC(=O)Nc2ccccc2)=C(C#N)C12CCCCC2 | inconclusive [inhibitor, partial curve, poor fit] | 
3 | COc1ccc(-n2ncc3c(N4CCN(Cc5ccccc5)CC4)ncnc32)cc1 | inconclusive [inhibitor, single point] | 
4 | Nc1nonc1-n1nnc(C(=O)N/N=C/c2ccc(Cl)cc2Cl)c1CN1CCCCC1 | inconclusive [inhibitor, single point] | 
5 | COc1cccc(C(=O)Oc2ccc3ccc(O)cc3c2)c1 |  | inactive: -8.77%
6 | CN1CCN(S(=O)(=O)c2ccc(NN)nc2)CC1 | inconclusive [inhibitor, partial curve, poor fit] | 
7 | O=C(CCC1CCN(Cc2ccc(C#CCCO)cc2)CC1)NC1CC1 | inconclusive [inhibitor, full curve] | 
8 | COC(=O)c1sccc1NC(=O)c1ccccc1F | inconclusive [inhibitor, full curve, poor fit] | 
9 | CC(C)N=C(NC#N)SCC(=O)NC(C)(C)C | inconclusive [inhibitor, partial curve, poor fit] | 
10 | Cc1nn(CC(=O)N2CCN(c3ccccc3)CC2)c(=O)c2cc3cc(F)ccc3n12 |  | inactive: 13.4%
11 | Cc1cccc(C)c1OCc1cc(C(=O)N2CCN(c3ccccn3)CC2)no1 |  | inactive: -16.9%
12 | N#Cc1ccc(COC(=O)CN2C(=O)NC3(CCCC3)C2=O)cc1 | inconclusive [inhibitor, single point] | 
13 | CCCCN(CC)CCCNC(=O)c1cc2cc3ccc(C)cc3nc2o1 |  | inactive: -1.38%
14 | CCC1CCc2sc(C(=O)OCC(=O)N(CCOC)c3c(N)n(Cc4ccccc4)c(=O)[nH]c3=O)cc2C1 (centres undefined) | inconclusive [inhibitor, full curve, poor fit] | 
15 | Cc1ccc(C)c(N2CCN(C(=O)c3ccc(CS(=O)(=O)c4ccccc4C)o3)CC2)c1 | inconclusive [inhibitor, full curve] | 
16 | CSc1ncc(Cl)c(C(=O)Nc2ccc(S(=O)(=O)N3CCOCC3)cc2)n1 | inconclusive [inhibitor, partial curve, poor fit] | 
17 | O=C(CSc1ccc2nnc(-c3ccncc3)n2n1)NCc1ccco1 |  | inactive: 0.886%
18 | COC(=O)C1=C(C)OC(N)=C(C#N)C1c1ccc(OC)c(CSc2ccccn2)c1 (centres undefined) |  | inactive: 0.991%
19 | Cn1c(SCC(=O)C(C)(C)C)nnc1-c1cccnc1 | inconclusive [inhibitor, full curve, poor fit] | 
